Source: paper PMC6522912, “Evaluation of the published kinase inhibitor set to identify multiple inhibitors of bacterial ATP-dependent mur ligases” (Journal of Enzyme Inhibition and Medicinal Chemistry, 2019)
Read-outs that look alike come from different tables or passages of the source.

Columns and labels:
E. coli MurC = E. coli MurC (Escherichia coli, UniProt P17952); experiment: Malachite green inhibition assay, MurC; assay type: biochemical; conditions: 0.25 h
Procedure: (§1) Inhibition of the Mur ligases was determined using the malachite green assay, with slight modifications.
(§2) In all cases, the final concentration of DMSO was 5% (v/v). After incubation for 15 min at 37 °C, the enzyme reaction was terminated by addition of 100 µM Biomol green reagent, and the absorbance was measured at 650 nm after 5 min. All of the experiments were run in duplicate. Residual activities were calculated with respect to control assays without the tested compounds, but with the 5% DMSO carrier.
(§3) The published kinase inhibitor set compounds were evaluated for inhibition of MurC, D and F ligases from E. coli using the Malachite green assay, which detects orthophosphate generated during enzymatic reactions. To avoid non-specific inhibition due to aggregate formation, all of the compounds were tested in the presence of detergent (0.005% Triton-X114). The data are presented as the residual activities of these Mur ligases in the presence of 100 µM of each test compound (Supporting Information Table S1). […] Additionally, regarding the data of profiled compounds in large panels of human kinase assays[41]

E. coli MurD = E. coli MurD (Escherichia coli, UniProt P14900); experiment: biochemical; conditions: 0.25 h, read-out: RA [%] at 100 µM MurD
Procedure: as §1, §2
The published kinase inhibitor set compounds were evaluated for inhibition of MurC, D and F ligases from E. coli using the Malachite green assay, which detects orthophosphate generated during enzymatic reactions. To avoid non-specific inhibition due to aggregate formation, all of the compounds were tested in the presence of detergent (0.005% Triton-X114). The data are presented as the residual activities of these Mur ligases in the presence of 100 µM of each test compound (Supporting Information Table S1).

E. coli MurF = E. coli MurF (Escherichia coli, UniProt P11880); experiment: biochemical; conditions: 0.25 h, read-out: RA [%] at 100 µM MurF
Procedure: as §1, §2, §3

[1] = Table S1, PKIS screening, read-out: RA [%] at 100 µM MurC
[2] = read-out: RA [%] at 100 µM MurC, Table S1, PKIS screening

Row | SMILES | remaining activity at 100 µM (E. coli MurC; [1]) [%] | remaining activity at 100 µM (E. coli MurD) [%] | remaining activity at 100 µM (E. coli MurF) [%] | remaining activity at 100 µM (E. coli MurC; [2]) [%]
1 | COc1ccccc1C1=C(Nc2ccccc2)C(=O)NC1=O [SB-376719] | 66 | 89 | 97 | –
2 | O=C1NC(=O)C(c2ccccc2)=C1Nc1ccccc1 [SKF-62604] | 61 | 86 | 100 | –
3 | CS(=O)(=O)c1ccc(Oc2nccc(-c3c(-c4ccc(F)cc4)ncn3C3CCNCC3)n2)cc1 [SB-254169] | – | 49 | 48 | 18
4 | Fc1ccc(Oc2nccc(-c3c(-c4ccc(F)cc4)ncn3C3CCNCC3)n2)cc1 [SB-242717] | 79 | 100 | 72 | –
5 | COc1ccccc1Oc1nccc(-c2c(-c3ccc(F)cc3)ncn2C2CCNCC2)n1 [SB-251527] | 58 | 71 | 74 | –
6 | O=C1NC(=O)C(c2cccc([N+](=O)[O-])c2)=C1Nc1cc(Cl)c(O)c(Cl)c1 [SB-358518] | 65 | 79 | 83 | –
7 | O=C1NC(=O)C(c2ccccc2Cl)=C1Nc1cc(Cl)c(O)c(Cl)c1 [SB-390523] | 100 | 92 | 88 | –
8 | Fc1ccc(-c2ncn(C3CCNCC3)c2-c2ccnc(Oc3cccc(C(F)(F)F)c3)n2)cc1 [SB-253226] | 42 | 24 | 69 | –
9 | CC(C)(C)c1ccc(Oc2nccc(-c3c(-c4ccc(F)cc4)ncn3C3CCNCC3)n2)cc1 [SB-278538] | 75 | 57 | 73 | –
10 | Fc1ccc(-c2ncn(C3CCNCC3)c2-c2ccnc(Oc3ccc(Cl)cc3)n2)cc1 [SB-278539] | – | 52 | 74 | 55
11 | NC(=O)CCc1ccccc1Oc1nccc(-c2c(-c3ccc(F)cc3)ncn2C2CCNCC2)n1 [SB-264866] | 74 | 83 | 84 | –
